# Source: PubChem BioAssay (NCATS)
# “And” between values parts separate entries of the source, which are not always exact repeats. Equal values may be shown once. This list was built around the results that the source calls inconclusive (neither active nor inactive); the mix of calls is not that of the screen. Potencies beside an inconclusive call are fits to weak or partial responses and may not hold up. The source made the active and inactive calls. Calls follow the shape of the dose curve; as a rule, active = well fitted inhibition curve with a large enough effect; inconclusive = small, poorly fitted or top-dose-only effect; inactive = no such curve, though single readings can be large or run the other way.
# Experiment: NS1 protein of Zika virus - qHTS assay to identify small molecule inhibitors in human HEK 293 cells (AID 1347053); also: nearly all actives have a fitted effect of over 55% in size;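 as to activity change, negative = inhibition: plate controls were infected untreated cells for no effect and uninfected cells for full effect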
# Settings: HEK293 ZIKV MR766 infection, NS1 TR-FRET, 24 h; series mostly up to 46.1 µM; activity change, negative = inhibition: at the top concentration
# Method in brief: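 Readout was TR-FRET using paired anti-NS1 antibodies after 24 h infection of HEK 293 cells with ZIKV MR766 (MOI = 0.5). Compound preceded virus by 1 h; reduced signal reflects lower NS1 expression.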
# Potency is read from the fitted curve at half-maximal effect; tags tell the direction and shape of the fitted curve.
SMILES,Potency,"activity change, negative = inhibition"
Clc1ccc(CCC(Cn2ccnc2)Sc2c(Cl)cccc2Cl)cc1 (stereo unspecified),"inconclusive: 22.4 µM [inhibitor, single point] and active: 14.8 µM",
CO[C@]12CC[C@@]3(C[C@@H]1[C@](C)(O)C(C)(C)C)[C@@H]1Cc4ccc(O)c5c4[C@@]3(CCN1CC1CC1)[C@H]2O5,"inconclusive: 31.6 µM [inhibitor, partial curve, poor fit]",
COP(=S)(OC)Oc1ccc(Sc2ccc(OP(=S)(OC)OC)cc2)cc1,,inactive: -1.2%
COc1cc([C@@H]2c3cc4c(cc3[C@@H](O)C3COC(=O)C32)OCO4)cc(OC)c1O (stereo partly specified),"inconclusive: 0.0935 µM [inhibitor, full curve, poor fit]",
Clc1ccc(COC(Cn2ccnc2)c2ccc(Cl)cc2Cl)cc1 (stereo unspecified),"inconclusive: 37.2 µM [inhibitor, single point]",
N#C[C@H](O[C@@H]1O[C@H](CO[C@@H]2O[C@H](CO)[C@H](O)[C@H](O)[C@H]2O)[C@H](O)[C@H](O)[C@H]1O)c1ccccc1,"inconclusive: 37.2 µM [inhibitor, single point]",
CCN1CCN(C(=O)Cc2ccc(Nc3ncc(F)c(Nc4ccc(C(=O)Nc5ccccc5Cl)cc4)n3)cc2)CC1,active: 11.8 µM,
CC(C)(C)C(O)C(Oc1ccc(Cl)cc1)n1cncn1 (stereo unspecified),"inconclusive: 35.5 µM [inhibitor, partial curve, poor fit]",
CC(C)(O)C=CC(=O)[C@](C)(O)[C@H]1[C@H](O)C[C@]2(C)[C@@H]3CC=C4[C@@H](C=C(O)C(=O)C4(C)C)[C@]3(C)C(=O)C[C@@]12C,active: 3.32 µM,
C/C=C(/C)C(=O)O[C@H]1C(C)=C2[C@H]([C@@H]1OC(=O)CCCCCCC)[C@@](C)(OC(C)=O)C[C@H](OC(=O)CCC)[C@@]1(O)[C@H]2OC(=O)[C@@]1(C)O,"inconclusive: 35.5 µM [inhibitor, single point]",
CC(=Cc1csc(C)n1)[C@@H]1C[C@H]2O[C@]2(C)CCC[C@H](C)[C@@H](O)[C@@H](C)C(=O)C(C)(C)[C@@H](O)CC(=O)O1,"inconclusive: 33.2 µM [inhibitor, single point]",
